Laboratory results as given in PubChem BioAssay AID2675 (National Center for Advancing Translational Sciences (NCATS), 2010).
The campaign covered roughly 280,000 compounds. About 100 (0.036%) were called active. This list was built around the results that the source calls inconclusive (neither active nor inactive); the mix of calls is not that of the screen. Calls come from the whole dose curve; as a rule, active = well fitted inhibition curve with a large enough effect in the signal ratio, with a control signal flat (not every such curve was filed as active); inconclusive = small, poorly fitted or top-dose-only effect, or effect the other way, or a change in a side signal; inactive = no such curve, though single readings can be large or run the other way; the % refers to the signal ratio. Where the call is inconclusive, the potency comes from a doubtful curve fit. A note “side channel” means that the fit belongs to a control or component signal, not to the main read-out.
Potency is the fitted concentration of half-maximal effect; tags give direction and shape of the fitted curve or compound fluorescence and quenching.

Each compound was assayed against Muscleblind-like protein 1 (Homo sapiens) (UniProt Q9NR56) (assay: qHTS Assay for Inhibitors of MBNL1-poly(CUG) RNA binding). Details: TR-FRET MBNL1-His/biotin-(CUG)12 binding, 665/545 ratio; series mostly up to 57.5 µM.
UniProt Q9NR56, sequence (Q9NR56 whole entry, looked up): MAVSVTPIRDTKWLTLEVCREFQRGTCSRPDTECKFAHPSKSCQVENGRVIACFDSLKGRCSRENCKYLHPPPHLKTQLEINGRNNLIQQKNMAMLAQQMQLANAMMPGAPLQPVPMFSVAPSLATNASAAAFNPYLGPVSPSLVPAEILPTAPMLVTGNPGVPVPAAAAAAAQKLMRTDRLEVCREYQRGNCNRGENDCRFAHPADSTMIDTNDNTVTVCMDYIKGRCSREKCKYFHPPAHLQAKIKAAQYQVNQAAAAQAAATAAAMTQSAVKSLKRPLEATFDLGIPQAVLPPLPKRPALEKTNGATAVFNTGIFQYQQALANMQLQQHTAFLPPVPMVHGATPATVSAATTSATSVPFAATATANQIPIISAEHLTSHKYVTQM
How it was run: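 TR-FRET between His-tagged MBNL1 and biotin-(CUG)12 RNA, detected with Tb anti-His antibody (0.055 ng/ul) and streptavidin-XL665 (5 nM), 60 min at room temperature. Compounds titrated 92 nM to 58 uM; 665/545 nm ratio normalized to buffer and complex controls.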
OCC[C@@H]1C[C@@H](O)[C@H](O)[C@@]2(Cc3ccccc3O2)O1 was tested, and the Potency was “inactive”.
In the case of CC(Oc1cc2oc(=O)cc(-c3ccccc3)c2cc1Cl)C(=O)NCC1CCC(C(=O)O)CC1 (stereo not given), the Potency is reported as inconclusive: 15.8 µM [quencher, side channel, partial curve].
O=C(Nc1cc([N+](=O)[O-])ccc1Cl)C1CC1 was tested, and the Potency was inconclusive: 15.8 µM [quencher, side channel, partial curve].
With COc1ccc2cc(S(=O)(=O)c3ccccc3)c(=O)oc2c1 the Potency was inconclusive: 14.1 µM [quencher, partial curve, poor fit].
Cc1[nH]n(-c2ccccc2)c(=O)c1N=Nc1ccc(C(=O)O)cc1 was tested, and the Potency was inconclusive: 2 µM [quencher, side channel, partial curve, poor fit].
For CC1CC(C)CN(C(=O)COc2ccc([N+](=O)[O-])cc2Cl)C1 (stereo not given), the Potency was inconclusive: 28.2 µM [quencher, side channel, single point].
Cc1cccc(NC(=O)c2ccc(-c3ccccc3[N+](=O)[O-])o2)c1 was tested, and the Potency was inconclusive: 14.1 µM [quencher, side channel, partial curve].
COc1cc(/C=C2/NC(=O)N(Cc3ccccc3F)C2=O)cc(OC)c1OC was tested, and the Potency was inconclusive: 31.6 µM [quencher, side channel, single point].
For Cc1nnc(SCCC(=O)Nc2ccccc2Cl)o1, the Potency was “inactive”.
In the case of Cc1nn(C)c(Oc2ccccc2)c1CCNS(=O)(=O)c1ccccc1, the Potency is reported as inconclusive: 0.631 µM [quencher, side channel, single point].
With CCN(CCO)c1ccc(N=Nc2cc(C)[nH]n2)cc1 the Potency was inconclusive: 12.6 µM [quencher, side channel, partial curve].
COc1ccc(NS(=O)(=O)c2cccc(C(=O)N/N=C/c3cn(-c4ccccc4)nc3-c3ccccc3)c2)cc1 was tested, and the Potency was “inactive”.
For N#CC(C#N)=c1ccc2c(c1)NC1(CCCCC1)N=2, the Potency was inconclusive: 15.8 µM [quencher, side channel, partial curve].
In the case of Cc1cc2ccccn2c1C(=O)c1ccc(NN)c([N+](=O)[O-])c1, the Potency is reported as inconclusive: 20 µM [quencher, side channel, partial curve].
With COc1ccc(Cl)cc1NC(=S)NCCc1ccc(F)cc1 the Potency was “inactive”.
CC(/C=N/Nc1ccc2nncn2n1)=C\c1ccccc1 was tested, and the Potency was inconclusive: 31.6 µM [quencher, side channel, partial curve].
With O=Cc1c(Sc2ccccn2)nc2ccccn2c1=O the Potency was inconclusive: 4.47 µM [quencher, side channel, full curve].
For CCC(C)NC(=O)C1CCC(CNS(=O)(=O)c2cccc3nsnc23)CC1 (stereo not given), the Potency was inconclusive: 15.8 µM [quencher, side channel, partial curve].
For O=C(CCN1CCc2ccccc2CC1)c1ccc2c(c1)OCCO2, the Potency was “inactive”.
With CCOC(=O)c1cc(CC)sc1NC(=O)c1ccc([N+](=O)[O-])c(N2CCOCC2)c1 the Potency was inconclusive: 0.178 µM [fluorescent, side channel, full curve, poor fit].
In the case of O=C(CCNC(=O)c1ccc([N+](=O)[O-])cc1)NCCc1ccc(Cl)cc1, the Potency is reported as inconclusive: 14.1 µM [quencher, side channel, partial curve].
For O=C(NC1CCN(S(=O)(=O)c2ccccc2)CC1)C1CCCCC1, the Potency was inconclusive: 63.1 µM [inhibitor, single point].
O=C(NC(NC(=S)Nc1cccc(C(=O)O)c1)C(Cl)(Cl)Cl)OCc1ccccc1 (stereo not given) was tested, and the Potency was “inactive”.
CC(=O)NN1C(=O)/C(=C\c2ccc(Br)o2)SC1=S was tested, and the Potency was inconclusive: 1.78 µM [quencher, side channel, partial curve].
In the case of COc1cc(C2c3c(oc4ccccc4c3=O)C(=O)N2c2nccs2)ccc1O (stereo not given), the Potency is reported as inconclusive: 10 µM [quencher, side channel, partial curve].
With O=C(/C=C/c1ccc2c(c1)OCO2)Nc1cccnc1 the Potency was inconclusive: 28.2 µM [quencher, side channel, single point].
With Cc1cc(=O)[nH]c(-n2nc(C)cc2C)n1 the Potency was “inactive”.
COc1cc(/C=N/NC(=O)c2ccc(Cn3cc([N+](=O)[O-])cn3)o2)cc(Br)c1O was tested, and the Potency was inconclusive: 20 µM [quencher, side channel, single point].
With CN(C)c1ccc(NC(=O)c2ccc3nsnc3c2)cc1 the Potency was inconclusive: 0.631 µM [quencher, side channel, full curve].
For O=C(N/N=C/c1sc(=O)[nH]c1-[n+]1ccc2ccccc2c1)c1ccccc1[O-], the Potency was inconclusive: 11.2 µM [quencher, side channel, partial curve].
For CCOC(=O)c1c(-c2cccc(N)c2)cn2ccccc12, the Potency was inconclusive: 31.6 µM [quencher, side channel, partial curve].
With Cn1c(CCN2CCCCC2)nc2cc(NC(=O)COc3ccc([N+](=O)[O-])cc3)ccc21 the Potency was inconclusive: 25.1 µM [quencher, side channel, partial curve].
O=C(CCNc1ccc(Cl)c(C(F)(F)F)c1)c1ccco1 was tested, and the Potency was “inactive”.
In the case of CC1=NNC(=O)C1CC(=O)N/N=C/c1cccs1 (stereo not given), the Potency is reported as inconclusive: 31.6 µM [quencher, side channel, single point].
In the case of Oc1ccccc1N1CCN(Cc2ncc(-c3ccccc3)o2)CC1, the Potency is reported as “inactive”.
COc1cc2c(cc1[N+](=O)[O-])n(C(C)C)c(=O)n2C(C)C was tested, and the Potency was inconclusive: 28.2 µM [quencher, side channel, partial curve].
In the case of COc1ccc2c(c1OC)C(=O)OC2Nc1nc(-c2cc3ccccc3oc2=O)cs1 (stereo not given), the Potency is reported as inconclusive: 10 µM [quencher, side channel, partial curve].
For CCn1c(N)c(C(=O)NCCCOC)sc1=S, the Potency was inconclusive: 17.8 µM [quencher, single point].
For O=C(/C=C\c1cccs1)N1CCN(Cc2ccc3c(c2)OCO3)CC1, the Potency was inconclusive: 15.8 µM [quencher, side channel, partial curve].
With Cn1c(-c2sc3ccccc3c2Cl)n[nH]c1=S the Potency was “inactive”.
With CCc1c(C)c(C#N)c2nc3ccccc3n2c1NCCN(C)C the Potency was inconclusive: 39.8 µM [quencher, single point].
With Cc1cc(/C=C2\SC(=O)N(C)C2=O)c(C)n1-c1ccc(S(N)(=O)=O)cc1 the Potency was inconclusive: 28.2 µM [quencher, side channel, single point].
For CCCn1c(O)c(N=NC(=O)CNC(=O)c2ccncc2)c2ccccc21, the Potency was inconclusive: 14.1 µM [quencher, side channel, partial curve].
With Cc1ccccc1-n1c(=O)n(Cc2ccccc2)c(=O)c2[nH]cnc21 the Potency was “inactive”.
With Cc1cc(-c2ccccc2)n2ncc(-c3ccccc3)c2n1 the Potency was inconclusive: 14.1 µM [quencher, side channel, partial curve].
CC(NC(=O)c1ccccc1Br)c1nnc(SCc2ccc([N+](=O)[O-])cc2)n1C (stereo not given) was tested, and the Potency was inconclusive: 14.1 µM [quencher, side channel, partial curve].
CC(C)OCC1CC(CC(=O)Nc2ccc([N+](=O)[O-])cc2)C(=O)O1 (stereo not given) was tested, and the Potency was inconclusive: 17.8 µM [quencher, side channel, partial curve].
For O=C(c1cc2cc([N+](=O)[O-])ccc2oc1=O)N1CCN(c2ncccn2)CC1, the Potency was “inactive”.
For CSCCC(NC(=O)/C(=C/c1ccc2c(c1)OCO2)NC(=O)c1cccc([N+](=O)[O-])c1)C(=O)O (stereo not given), the Potency was inconclusive: 28.2 µM [quencher, side channel, partial curve].
CCOc1ccc(N/C(=C(/C(Cl)=C(Cl)Cl)[N+](=O)[O-])n2cncn2)cc1 was tested, and the Potency was inconclusive: 31.6 µM [quencher, side channel, partial curve].
With O=C(NCc1ccc2c(c1)OCO2)c1ccc2c(c1)C(=O)N(CC1CCCO1)C2=O (stereo not given) the Potency was inconclusive: 14.1 µM [quencher, side channel, partial curve].
CCc1nc2n(n1)C(O)c1cc([N+](=O)[O-])ccc1S2 (stereo not given) was tested, and the Potency was inconclusive: 14.1 µM [quencher, partial curve].
With O=C1/C(=C/Nc2ccc3c(c2)OCO3)CCc2ccccc21 the Potency was inconclusive: 14.1 µM [quencher, side channel, partial curve].
CSc1ccccc1NS(=O)(=O)c1cccc2nonc12 was tested, and the Potency was inconclusive: 15.8 µM [quencher, side channel, partial curve].
With Oc1ccc(-c2csc(-c3cccnc3)n2)cc1O the Potency was inconclusive: 25.1 µM [quencher, side channel, partial curve].
With c1ccc(-c2cc(-c3nc4ccccc4[nH]3)c3ccccc3n2)cc1 the Potency was “inactive”.
With CC(O)C(=O)N/N=C/c1cccc(Cl)c1Cl (stereo not given) the Potency was inconclusive: 8.91 µM [quencher, side channel, single point].
For CCN(CC)C(=O)CN1C(=O)C(=O)c2ccccc21, the Potency was inconclusive: 22.4 µM [quencher, side channel, partial curve].
With COc1ccc(S(=O)(=O)N2CCOCC2)cc1NC(=O)c1ccccc1-c1ccc(C(F)(F)F)cc1 the Potency was inconclusive: 10 µM [fluorescent, side channel, partial curve].
In the case of Nc1ccc(-c2nc3cc(N)ccc3s2)cc1, the Potency is reported as inconclusive: 17.8 µM [quencher, partial curve].
